This is an account of results in patent US20210040533A1, “METHOD FOR IDENTIFYING TARGET GENE OF TEST SUBSTANCE” (DRUG GENOMICS, LTD., priority 2018, published 2021).

Assay [1] has as its system Tet strain having ERG11 gene as a candidate target gene. Put plainly: Determination of 50% inhibitory concentration of doxycycline on Tet strain (turbidity at OD 600). To be noted: Nakaseomyces glabratus, 20 h, read-out: IC50 of the Tet strain having ERG11 gene for Dox. An excerpt:
(§1) Tetracycline transcriptional repression strains (Tet strains), were each prepared by inserting Tet-Off promoter into a site upstream of each of the genes of Candida glabrata, in accordance with the method described in Ueno K, Uno J, Nakayama H, Sasamoto K, Mikami Y, Chibana H. Development of a highly efficient gene targeting system induced by transient repression of YKU80 expression in Candida glabrata. Eukaryot Cell. 2007; 6: 1239-1247.
SD medium (6.7 g/L yeast nitrogen base, 2% glucose) (100 μL) was added dropwise to a 96-well cell culture plate. To the plate, doxycycline (Dox) serially diluted was added, and then, the Tet strain prepared in the step (1) was inoculated. The strain was cultured at 30° C. for 20 hours and turbidity was measured at CD 600. The concentration at which the turbidity of the Tet strain decreased, by addition of Dox, to about 50% of that in the case where culture was carried out in the absence of Dox was specified as IC50. Herein, for example, IC50 or the Tet strain having ERG11 gene as a candidate target gene for Dox was 1 μM.

For assay [2], the system named is Tet strain having ERG1 gene as a candidate target gene. Described as above. To be noted: Nakaseomyces glabratus, 20 h, read-out: IC50 of the Tet strain having ERG1 gene for Dox.
Source text: as §1
SD medium (6.7 g/L yeast nitrogen base, 2% glucose) (100 μL) was added dropwise to a 96-well cell culture plate. To the plate, doxycycline (Dox) serially diluted was added and each of the Tet strains prepared in Example 1 (1) was inoculated. The strains were each cultured at 30° C. for 20 hours and turbidity was measured at OD 600. The concentration at which the turbidity of the Tet strain decreased, by addition of Dox, to about 50% of that in the case where culture was carried out in the absence of Dox was specified as IC50. Herein, for example, IC50 of the Tet strain having ERG1 gene as a candidate target gene for Dox was 0.5 LM.

For assay [3] the test system is unchanged. Kind of assay: Synergy index of Tet strains cultured with Dox and terbinafine (target gene identification). To be noted: Example 5, FIG. 6: Dox ½ times of IC50 (0.25 μM) and 12 μM Ter; compared to other Tet strains. In kind it is cell-based, Candida glabrata. As to the method:
The synergy indexes were calculated in substantially the same manner as in the method of Example 1 (4) except that the turbidity of the culture carried out in the presence of Dox and 12 μM Ter, the turbidity of the culture carried out in the presence of Dox of the same concentration, and the turbidity of the culture carried out in the presence of Ter of the same concentration for each Tet strain were used.

In general, IC50 refers to the concentration that gives 50% inhibition. With `C[C@H]1c2cccc(O)c2C(=O)C2=C(O)[C@]3(O)C(=O)C(C(N)=O)=C(O)[C@@H](N(C)C)[C@@H]3[C@@H](O)[C@@H]21` [doxycycline], the IC50 in assay [1] amounted to 1000 nM; in assay [2], 500 nM.
As for `CN(C/C=C/C#CC(C)(C)C)Cc1cccc2ccccc12` [terbinafine], the “Synergy index =(A+B)/2C” value in assay [3] was “significantly high”.
